# Test results: the supplement of paper PMC8728848
# Some of the results follow.
# B1: Jacalin (Artocarpus integrifolia) (protein)
# chain: MAYSSLLSLSVLALLFSISSADTRKWFLANGINQNPIGIIEAAVGVSEDLLNLNGMEAKNDEQSGISQTVIVGPWGAKVSTSSNGKAFDDGAFTGIREINLSYNKETAIGDFQVVYDLNGSPYVGQNHKSFITGFTPVKISLDFPSEYIMEVSGYTGNVSGYVVVRSLTFKTNKKTYGPYGVTSGTPFNLPIENGLIVGFKGSIGYWLDYFSMYLSL
# Experiments:
# Test in all cases: glycan array binding signal (z-score within array); higher = stronger binding
# Conditions in all cases: glycan notation: IUPAC condensed, linker removed
# [1] = target: Neu5Ac(a2-3)Gal(b1-4)GlcNAc(b1-2)[Neu5Ac(a2-3)Gal(b1-4)GlcNAc(b1-6)]Man(a1-6)[Neu5Ac(a2-3)Gal(b1-4)GlcNAc(b1-2)Man(a1-3)][GlcNAc(b1-4)]Man(b1-4)GlcNAc(b1-4)GlcNAc
# Outline: (§1)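 The Consortium for Functional Glycomics database supplied 3228 glycan arrays, of which those lacking an available protein sequence were dropped. The binding signal, a within-array Z-score, was averaged across arrays of the same protein sequence and across linkers. Negative scores can be read as non-binding.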
# [2] = target: Neu5Ac(a2-3)Gal(b1-4)GlcNAc(b1-3)Gal
# Outline: as §1
# [3] = target: Neu5Ac(a2-3)Gal(b1-4)GlcNAc(b1-3)Gal(b1-3)GlcNAc
# Outline: as §1
# [4] = target: Neu5Ac(a2-3)Gal(b1-4)GlcNAc(b1-3)Gal(b1-4)GlcNAc
# Outline: as §1
# [5] = target: Neu5Ac(a2-3)Gal(b1-4)GlcNAc(b1-3)Gal(b1-4)GlcNAc(b1-2)Man(a1-3)[Neu5Ac(a2-3)Gal(b1-4)GlcNAc(b1-3)Gal(b1-4)GlcNAc(b1-2)Man(a1-6)]Man(b1-4)GlcNAc(b1-4)GlcNAc
# Outline: as §1
# [6] = target: Neu5Ac(a2-3)Gal(b1-4)GlcNAc(b1-3)Gal(b1-4)GlcNAc(b1-3)Gal(b1-4)GlcNAc
# Outline: as §1
# [7] = target: Neu5Ac(a2-3)Gal(b1-4)GlcNAc(b1-3)Gal(b1-4)GlcNAc(b1-3)Gal(b1-4)GlcNAc(b1-2)Man(a1-3)[Neu5Ac(a2-3)Gal(b1-4)GlcNAc(b1-3)Gal(b1-4)GlcNAc(b1-3)Gal(b1-4)GlcNAc(b1-2)Man(a1-6)]GalNAc
# Outline: as §1
# [8] = target: Neu5Ac(a2-3)Gal(b1-4)GlcNAc(b1-3)Gal(b1-4)GlcNAc(b1-3)GalNAc
# Outline: as §1
# [9] = target: Neu5Ac(a2-3)Gal(b1-4)GlcNAc(b1-3)Gal(b1-4)GlcNAc(b1-3)[Neu5Ac(a2-3)Gal(b1-4)GlcNAc(b1-3)Gal(b1-4)GlcNAc(b1-6)]GalNAc
# Outline: as §1
# [10] = target: Neu5Ac(a2-3)Gal(b1-4)GlcNAc(b1-3)Gal(b1-4)GlcNAc(b1-6)[Gal(b1-3)]GalNAc
# Outline: as §1
# [11] = target: Neu5Ac(a2-3)Gal(b1-4)GlcNAc(b1-3)Gal(b1-4)[Fuc(a1-3)]GlcNAc
# Outline: as §1
# [12] = target: Neu5Ac(a2-3)Gal(b1-4)GlcNAc(b1-3)GalNAc
# Outline: as §1
# [13] = target: Neu5Ac(a2-3)Gal(b1-4)GlcNAc(b1-3)[Neu5Ac(a2-3)Gal(b1-4)GlcNAc(b1-6)]GalNAc
# Outline: as §1
# [14] = target: Neu5Ac(a2-3)Gal(b1-4)GlcNAc(b1-6)GalNAc
# Outline: as §1
# [15] = target: Neu5Ac(a2-3)Gal(b1-4)GlcNAc(b1-6)[Gal(b1-3)]GalNAc
# Outline: as §1
# [16] = target: Neu5Ac(a2-3)Gal(b1-4)GlcNAc(b1-6)[Neu5Ac(a2-3)Gal(b1-3)]GalNAc
# Outline: as §1
# [17] = target: Neu5Ac(a2-3)Gal(b1-4)GlcNAc6S
# Outline: as §1
# [18] = target: Neu5Ac(a2-3)Gal(b1-4)[Fuc(a1-3)]GlcNAc
# Outline: as §1
# [19] = target: Neu5Ac(a2-3)Gal(b1-4)[Fuc(a1-3)]GlcNAc(b1-2)Man
# Outline: as §1
# [20] = target: Neu5Ac(a2-3)Gal(b1-4)[Fuc(a1-3)]GlcNAc(b1-3)Gal
# Outline: as §1
# [21] = target: Neu5Ac(a2-3)Gal(b1-4)[Fuc(a1-3)]GlcNAc(b1-3)Gal(b1-4)GlcNAc
# Outline: as §1
# [22] = target: Neu5Ac(a2-3)Gal(b1-4)[Fuc(a1-3)]GlcNAc(b1-3)Gal(b1-4)[Fuc(a1-3)]GlcNAc(b1-3)Gal(b1-4)[Fuc(a1-3)]GlcNAc
# Outline: as §1
# [23] = target: Neu5Ac(a2-3)Gal(b1-4)[Fuc(a1-3)]GlcNAc(b1-3)GalNAc
# Outline: as §1
# [24] = target: Neu5Ac(a2-3)Gal(b1-4)[Fuc(a1-3)]GlcNAc(b1-6)[Gal(b1-3)]GalNAc
# Outline: as §1
# [25] = target: Neu5Ac(a2-3)Gal(b1-4)[Fuc(a1-3)]GlcNAc(b1-6)[Neu5Ac(a2-3)Gal(b1-3)]GalNAc
# Outline: as §1
# [26] = target: Neu5Ac(a2-3)Gal(b1-4)[Fuc(a1-3)]GlcNAc6S
# Outline: as §1
# [27] = target: Neu5Ac(a2-3)Gal6S(b1-4)GlcNAc
# Outline: as §1
# [28] = target: Neu5Ac(a2-3)Gal6S(b1-4)[Fuc(a1-3)]GlcNAc
# Outline: as §1
# [29] = target: Neu5Ac(a2-3)GalNAc
# Outline: as §1
# [30] = target: Neu5Ac(a2-3)GalNAc(b1-4)GlcNAc
# Outline: as §1
# [31] = target: Neu5Ac(a2-3)[GalNAc(b1-4)]Gal(b1-4)Glc
# Outline: as §1
# [32] = target: Neu5Ac(a2-3)[GalNAc(b1-4)]Gal(b1-4)GlcNAc
# Outline: as §1
# [33] = target: Neu5Ac(a2-3)[GalNAc(b1-4)]Gal(b1-4)GlcNAc(b1-3)GalNAc
# Outline: as §1
# [34] = target: Neu5Ac(a2-3)[Neu5Ac(a2-6)]GalNAc
# Outline: as §1
# [35] = target: Neu5Ac(a2-6)Gal
# Outline: as §1
# [36] = target: Neu5Ac(a2-6)Gal(b1-3)GlcNAc(b1-3)[Gal(b1-4)GlcNAc(b1-6)]Gal(b1-4)Glc
# Outline: as §1
# [37] = target: Neu5Ac(a2-6)Gal(b1-4)Glc
# Outline: as §1
# [38] = target: Neu5Ac(a2-6)Gal(b1-4)GlcNAc
# Outline: as §1
# [39] = target: Neu5Ac(a2-6)Gal(b1-4)GlcNAc(b1-2)Man
# Outline: as §1
# [40] = target: Neu5Ac(a2-6)Gal(b1-4)GlcNAc(b1-2)Man(a1-3)Man(b1-4)GlcNAc(b1-4)GlcNAc
# Outline: as §1
# [41] = target: Neu5Ac(a2-6)Gal(b1-4)GlcNAc(b1-2)Man(a1-3)[Gal(b1-4)GlcNAc(b1-2)Man(a1-6)]Man(b1-4)GlcNAc(b1-4)GlcNAc
# Outline: as §1
# [42] = target: Neu5Ac(a2-6)Gal(b1-4)GlcNAc(b1-2)Man(a1-3)[GlcNAc(b1-2)Man(a1-6)]Man(b1-4)GlcNAc(b1-4)GlcNAc
# Outline: as §1
# [43] = target: Neu5Ac(a2-6)Gal(b1-4)GlcNAc(b1-2)Man(a1-3)[GlcNAc(b1-4)][Neu5Ac(a2-6)Gal(b1-4)GlcNAc(b1-2)Man(a1-6)]Man(b1-4)GlcNAc(b1-4)GlcNAc
# Outline: as §1
# [44] = target: Neu5Ac(a2-6)Gal(b1-4)GlcNAc(b1-2)Man(a1-3)[Man(a1-6)]Man(b1-4)GlcNAc(b1-4)GlcNAc
# Outline: as §1
# [45] = target: Neu5Ac(a2-6)Gal(b1-4)GlcNAc(b1-2)Man(a1-3)[Neu5Ac(a2-3)Gal(b1-4)GlcNAc(b1-2)Man(a1-6)]Man(b1-4)GlcNAc(b1-4)GlcNAc
# Outline: as §1
binder,measurement,setting,value
B1,glycan array binding signal (z-score),[1],-0.259
same,glycan array binding signal (z-score),[2],-0.282
same,glycan array binding signal (z-score),[3],-0.28
same,glycan array binding signal (z-score),[4],-0.288
same,glycan array binding signal (z-score),[5],0.008
same,glycan array binding signal (z-score),[6],-0.295
same,glycan array binding signal (z-score),[7],0.501
same,glycan array binding signal (z-score),[8],0.779
same,glycan array binding signal (z-score),[9],-0.224
same,glycan array binding signal (z-score),[10],-0.212
same,glycan array binding signal (z-score),[11],-0.274
same,glycan array binding signal (z-score),[12],0.375
same,glycan array binding signal (z-score),[13],-0.276
same,glycan array binding signal (z-score),[14],-0.268
same,glycan array binding signal (z-score),[15],-0.276
same,glycan array binding signal (z-score),[16],-0.287
same,glycan array binding signal (z-score),[17],-0.284
same,glycan array binding signal (z-score),[18],-0.272
same,glycan array binding signal (z-score),[19],-0.271
same,glycan array binding signal (z-score),[20],-0.274
same,glycan array binding signal (z-score),[21],-0.261
same,glycan array binding signal (z-score),[22],-0.25
same,glycan array binding signal (z-score),[23],-0.006
same,glycan array binding signal (z-score),[24],-0.205
same,glycan array binding signal (z-score),[25],-0.244
same,glycan array binding signal (z-score),[26],-0.252
same,glycan array binding signal (z-score),[27],-0.273
same,glycan array binding signal (z-score),[28],-0.294
same,glycan array binding signal (z-score),[29],0.896
same,glycan array binding signal (z-score),[30],-0.285
same,glycan array binding signal (z-score),[31],-0.261
same,glycan array binding signal (z-score),[32],-0.28
same,glycan array binding signal (z-score),[33],0.492
same,glycan array binding signal (z-score),[34],-0.268
same,glycan array binding signal (z-score),[35],-0.271
same,glycan array binding signal (z-score),[36],-0.278
same,glycan array binding signal (z-score),[37],-0.263
same,glycan array binding signal (z-score),[38],-0.257
same,glycan array binding signal (z-score),[39],-0.251
same,glycan array binding signal (z-score),[40],-0.253
same,glycan array binding signal (z-score),[41],-0.254
same,glycan array binding signal (z-score),[42],-0.259
same,glycan array binding signal (z-score),[43],-0.274
same,glycan array binding signal (z-score),[44],-0.26
same,glycan array binding signal (z-score),[45],-0.241
